The values that follow come from patent US8883120B2, “Polypeptides having affinity for HER2” (Affibody AB, priority 2007, dated 2014).

Marks after values point to notes of the source that are not given here.

Data set [1] addresses T1, recombinant human HER2/Fc (ErbB2/Fc) chimeric protein (Homo sapiens, UniProt P04626).
T1 construct: consisting of the extracellular domain of ErbB2 (HER2, Met^1-Thr^652); purchased R&D Systems 1129-ER
The experiment in a line: Surface Plasmon Resonance (Biacore 2000) binding kinetics on immobilized HER2/Fc. Particulars: 1:1 Langmuir model with mass transfer correction; for ka: association rate constant; for kd: dissociation rate constant.

The test system of data set [2] is primate Ig (pool of primate serum). The experiment in a line: In vitro antigenicity (IVA) ELISA. Particulars: serum dilution value at OD 0.3 related to standard Z00342 set to 100; below 100 = lower primate Ig-binding. For orientation: In an ELISA, binding on a coated surface is turned into a signal by an enzyme label.
Data set [3] concerns HER2 overexpressing SKOV-3 tumor xenografts. The experiment in a line: Biodistribution of 111In-labeled Affibody molecule in mice bearing SKOV-3 xenografts. The format is in vivo, BALB/c nu/nu mice. The conditions noted are these: for Tumor uptake: 1 μg (100 kBq) i.v.
Data set [4] relates to HER2 expressing SKOV-3 xenograft tumors. The experiment in a line: Gamma camera imaging, 111In-labeled Affibody molecule, SKOV-3 xenografts. The conditions noted are these: 30 minutes and 4 hours p.i., 3 μg (4.5 MBq). The format is in vivo, BALB/c nu/nu mice.
In data set [5] the test system is HER2 negative A431 xenografts. The experiment in a line: Gamma camera imaging, 111In-labeled Affibody molecule, A431 xenografts (control). The format is in vivo, BALB/c nu/nu mice. The conditions noted are these: 4 h p.i., 3 μg (4.5 MBq).

Take “Affibody® molecule II with DOTA: Affibody molecule II (SEQ ID NO:5) with maleimido-mono-amide-DOTA coupled to the C-terminal cysteine”: in data set [1], the ka was 1.27E+07* 1/Ms and the kd is 8.10E−04* 1/s. Moreover, the IVA-Value in data set [2] is recorded as 6.
In the case of “^111In-labeled Affibody® molecule II with DOTA: Affibody molecule II with DOTA coupled to the C-terminal cysteine, radiolabeled with 111In”, in data set [3] (1 μg (100 kBq) in tail vein), the tolerability of injections entry is given as “tolerated well”. Also, the Tumor uptake in data set [3] (0.5 hour p.i.) worked out at 13±2 % IA/g; in data set [3] (1 hour p.i.), 17±2 % IA/g; in data set [3] (4 hours p.i.), 15±3 % IA/g; in data set [3] (24 hours p.i.) it was 11±4 % IA/g. Also, the results for the Kidney uptake in data set [3] (1 hour p.i.) and in data set [3] (24 hours p.i.) were 186±24 % IA/g and 144±13 % IA/g, respectively. Besides, the tumor-to-blood ratio in data set [3] (1 hour p.i.) is on record as 16; in data set [3] (4 hour p.i.), 88; in data set [3] (24 hours p.i.), 275. Also, the tumor-to-liver ratio in data set [3] (4 hours p.i.) amounted to 10. Moreover, in data set [3] (4 hours p.i., 0.9 mg unlabeled NEM-blocked molecule II s.c. 50 min before), the “reduction of tumor uptake by pre-injection of excess unlabeled Affibody molecule (blocking experiment)” value was 86%. In addition, the “gamma camera imaging of tumor targeting” value in data set [4] is listed as “high specific tumor targeting”. In addition, the “uptake of radioactivity in HER2-negative tumor (gamma camera image)” value in data set [5] is “negligible uptake”.
Turning to “Affibody® molecule II with NEM: Affibody molecule II (SEQ ID NO:5) whose C-terminal cysteine SH-group is blocked with N-ethylmaleimide (NEM)”, in data set [1], the ka came out at 1.23e+07 M⁻¹ s⁻¹ and the kd worked out at 0.000741 s⁻¹.
